Source: patent publication US20240124563A1 (NANJING ZAIMING PHARMACEUTICAL, published 2024)

What was measured:
[1] = molecular target: T1, human MSLN protein endogenously expressed on tumor cells (Hela, OVCAR3) (human, UniProt Q13421 296-598); assay: FACS, OVCAR3 cells, antibody 2 nM
T1 construct: whole, on cells

[2] = molecular target: T1, human MSLN protein endogenously …; assay: FACS, OVCAR3 cells, antibody 20 nM
[3] = molecular target: T1, human MSLN protein endogenously …; assay: FACS, OVCAR3 cells, antibody 0.2 nM
[4] = molecular target: T2, human MSLN full-length protein, recombinant, on CHO-K1 or HEK293T cells (human, UniProt Q13421 296-598); assay: FACS, HEK293T-hMSLN-B8 cells, antibody 20 nM
T2 construct: The background says that the precursor is cleaved by furin to the mature membrane form; also called hMSLN; CHO-K1-hMSLN-2C8

[5] = molecular target: T2, human MSLN full-length protein, …; assay: FACS, HEK293T-hMSLN-B8 cells, antibody 0.2 nM
[6] = molecular target: T3, chimeric human MSLN-R3 / chicken MSLN-R1-2 protein on HEK293T cells (clone A5) (chicken; human); assay: FACS, HEK293T-hR3/chickR1-2-A5 cells, antibody 20 nM
T3 construct: range 327-514; Human R1-R2 replaced by chicken R1-R2; also called HEK293T-chickR1-2/hR3-A5; HEK293T-hR3/chickR1-2-A5

[7] = molecular target: T3, chimeric human MSLN-R3 / chicken …; assay: FACS, HEK293T-hR3/chickR1-2-A5 cells, antibody 0.2 nM
[8] = molecular target: T4, human MSLN-FL-his protein (human, UniProt Q13421 296-580); assay: competitive ELISA on MSLN-FL-His; other antibody: NB148-27 (3.m3)
T4 construct: Made in HEK293E cells, purified on nickel column; also called hMSLN-FL-his; not shown: histidine tag

[9] = molecular target: T4, human MSLN-FL-his protein; assay: competitive ELISA on MSLN-FL-His; other antibody: NB148-35 (3.m4)
T4 sequence (Q13421 other isoform, or with tags, fused parts or gaps): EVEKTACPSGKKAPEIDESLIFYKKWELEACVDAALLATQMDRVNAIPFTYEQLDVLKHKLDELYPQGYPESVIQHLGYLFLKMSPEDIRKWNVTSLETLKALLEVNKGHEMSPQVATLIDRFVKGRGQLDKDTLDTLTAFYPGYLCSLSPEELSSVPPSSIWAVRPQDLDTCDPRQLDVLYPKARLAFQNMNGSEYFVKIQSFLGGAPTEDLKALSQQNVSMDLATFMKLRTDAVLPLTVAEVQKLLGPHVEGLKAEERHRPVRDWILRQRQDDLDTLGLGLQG

[10] = molecular target: T4, human MSLN-FL-his protein; assay: competitive ELISA on MSLN-FL-His; other antibody: NB148-88 (3.m6)
[11] = molecular target: T4, human MSLN-FL-his protein; assay: competitive ELISA on MSLN-FL-His; other antibody: NB149-31 (3.m7)
[12] = molecular target: T4, human MSLN-FL-his protein; assay: competitive ELISA on MSLN-FL-His; other antibody: NB149-70 (3.m9)
[13] = molecular target: T4, human MSLN-FL-his protein; assay: competitive ELISA on MSLN-FL-His; other antibody: Tab107 (C) (1.m4)
[14] = molecular target: T2, human MSLN full-length protein, …; assay: competitive FACS on CHO-K1-human MSLN-2C8 cells vs Biotin-Tab142; competitor at 4 nM
[15] = molecular target: T2, human MSLN full-length protein, …; assay: competitive FACS on CHO-K1-human MSLN-2C8 cells vs Biotin-Tab142; competitor at 20 nM
[16] = molecular target: T4, human MSLN-FL-his protein; assay: competitive ELISA on MSLN-FL-His; other antibody: Tab108 (R3) (3.m14)
[17] = molecular target: T4, human MSLN-FL-his protein; assay: competitive ELISA on MSLN-FL-His; other antibody: Tab142 (R1) (3.m16)
[18] = molecular target: T2, human MSLN full-length protein, …; assay: competitive FACS on CHO-K1-human MSLN-2C8 cells vs Biotin-Tab142; competitor at 0.8 nM
[19] = molecular target: T2, human MSLN full-length protein, …; assay: competitive FACS on CHO-K1-human MSLN-2C8 cells vs Biotin-Tab142; competitor at 100 nM
[20] = molecular target: T2, human MSLN full-length protein, …; assay: competitive FACS on CHO-K1-human MSLN-2C8 cells vs Biotin-Tab142; competitor at 0.16 nM
[21] = molecular target: T2, human MSLN full-length protein, …; assay: competitive FACS on CHO-K1-human MSLN-2C8 cells vs Biotin-Tab142; competitor at 0.0064 nM
[22] = molecular target: T2, human MSLN full-length protein, …; assay: competitive FACS on CHO-K1-human MSLN-2C8 cells vs Biotin-Tab142; competitor at 0.00128 nM

Binder | MFI [1] | MFI [2] | MFI [3] | MFI [4] | MFI [5] | MFI [6] | MFI [7] | inhibition rate [8] [%] | inhibition rate [9] [%] | inhibition rate [10] [%] | inhibition rate [11] [%] | inhibition rate [12] [%] | inhibition rate [13] [%] | MFI of Biotin-Tab142 [14] | MFI of Biotin-Tab142 [15] | inhibition rate [16] [%] | inhibition rate [17] [%] | MFI of Biotin-Tab142 [18] | MFI of Biotin-Tab142 [19] | MFI of Biotin-Tab142 [20] | other results
NB149-31 VHH-hFc (Fc fusion) EVQVVESGGGLVQPGGSLRLSCAASGITFSGNYGGWFRQAPGEQRELVASMSSALGTKYADPVKGRFTISTDTAKNTVDLQMNSLGPEDTAVYYCYARVRLSRGGWGSEYWGQGTQVTVSS[human IgG1 Fc with changes not written out] | 6090 | 11400 | 1200 | 24800 | 1210 | 74 | 74 | 95 | -71 | -80 | 88 | 88 | 70 | 33600 | 25600 | 27 | 97 | 39800 | 17600 | 41000 | MFI of Biotin-Tab142 [21]: 43500; MFI of Biotin-Tab142 [22]: 40500
NB148-27 VHH-hFc (Fc fusion) EVQVVESGGGLVQAGASLRLSCASSGRTISPIAMAWFRQAPGKERELVAGLTWTGRTYYSDSVKGRFTISRDNAKNTVYLQMDSLKFEDTAVYFCAAGDNPDRRGSSWSSSSVYEYWGQGTQVTVSS[human IgG1 Fc with changes not written out] | 1600 | 5400 | 361 | 24800 | 1670 | 93 | 73 | 59 | -28 | -66 | 86 | 83 | 28 | 40400 | 33100 | 40 | 75 | 41700 | 26000 | 40500 | MFI of Biotin-Tab142 [21]: 41700; MFI of Biotin-Tab142 [22]: 41000
NB148-46 VHH-hFc (Fc fusion) EVQLVESGGGLVQAGGSLRLSCAASGSTFSSYPMGWYRQAPGKQRELVAAISSGGSTNYADSVKGRFTISRDNAKNTVYLQMNSLKPEDTAVYYCNTRSPRVPNDSWGQGTQVTVSS[human IgG1 Fc with changes not written out] | 7150 | 11100 | 1450 | 25700 | 1280 | 73 | 72 | 75 | -10 | 6 | 89 | 81 | -6 | 33500 | 24900 | -8 | 86 | 39300 | 19500 | 41000 | MFI of Biotin-Tab142 [21]: 43800; MFI of Biotin-Tab142 [22]: 42600
